# The list shows a part of the results.
# B1: Gal 8 (Homo sapiens), O00214_1 (protein)
# chain: MMLSLNNLQNIIYNPVIPFVGTIPDQLDPGTLIVIRGHVPSDADRFQVDLQNGSSMKPRADVAFHFNPRFKRAGCIVCNTLINEKWGREEITYDTPFKREKSFEIVIMVLKDKFQVAVNGKHTLLYGHRIGPEKIDTLGIYGKVNIHSIGFSFSSDLQSTQASSLELTEISRENVPKSGTPQLRLPFAARLNTPMGPGRTVVVKGEVNANAKSFNVDLLAGKSKDIALHLNPRLNIKAFVRNSFLQESWGEEERNITSFPFSPGMYFEMIIYCDVREFKVAVNGVHSLEYKHRFKELSSIDTLEINGDIHLLEVRSW
# Tests used:
# Assay in all cases: glycan array binding signal (z-score within array); higher = stronger binding
# Details in all cases: glycan notation: IUPAC condensed, linker removed
# [1] = molecular target: Fuc(a1-2)Gal(b1-4)GlcNAc(b1-3)Gal(b1-4)GlcNAc(b1-3)Gal(b1-4)GlcNAc
# Method in brief: (§1)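 The Consortium for Functional Glycomics database supplied 3228 glycan arrays, of which those lacking an available protein sequence were dropped. The binding signal, a within-array Z-score, was averaged across arrays of the same protein sequence and across linkers. Negative scores can be read as non-binding.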
# [2] = molecular target: Fuc(a1-2)Gal(b1-4)GlcNAc(b1-3)GalNAc
# Method in brief: as §1
# [3] = molecular target: Fuc(a1-2)Gal(b1-4)GlcNAc(b1-3)[Fuc(a1-2)Gal(b1-4)GlcNAc(b1-6)]GalNAc
# Method in brief: as §1
# [4] = molecular target: Fuc(a1-2)Gal(b1-4)GlcNAc(b1-6)GalNAc
# Method in brief: as §1
# [5] = molecular target: Fuc(a1-2)Gal(b1-4)GlcNAc6S
# Method in brief: as §1
# [6] = molecular target: Fuc(a1-2)Gal(b1-4)[Fuc(a1-3)]GlcNAc
# Method in brief: as §1
# [7] = molecular target: Fuc(a1-2)Gal(b1-4)[Fuc(a1-3)]GlcNAc(b1-2)Man(a1-3)[Fuc(a1-2)Gal(b1-4)[Fuc(a1-3)]GlcNAc(b1-2)Man(a1-6)]Man(b1-4)GlcNAc(b1-4)GlcNAc
# Method in brief: as §1
# [8] = molecular target: Fuc(a1-2)Gal(b1-4)[Fuc(a1-3)]GlcNAc(b1-2)Man(a1-6)[Fuc(a1-2)Gal(b1-4)[Fuc(a1-3)]GlcNAc(b1-2)Man(a1-3)]Man(b1-4)GlcNAc(b1-4)[Fuc(a1-6)]GlcNAc
# Method in brief: as §1
# [9] = molecular target: Fuc(a1-2)Gal(b1-4)[Fuc(a1-3)]GlcNAc(b1-2)[Fuc(a1-2)Gal(b1-4)[Fuc(a1-3)]GlcNAc(b1-4)]Man(a1-3)[Fuc(a1-2)Gal(b1-4)[Fuc(a1-3)]GlcNAc(b1-2)Man(a1-6)]Man(b1-4)GlcNAc(b1-4)GlcNAc
# Method in brief: as §1
# [10] = molecular target: Fuc(a1-2)Gal(b1-4)[Fuc(a1-3)]GlcNAc(b1-3)Gal(b1-4)[Fuc(a1-3)]GlcNAc
# Method in brief: as §1
# [11] = molecular target: Fuc(a1-2)Gal(b1-4)[Fuc(a1-3)]GlcNAc(b1-3)Gal(b1-4)[Fuc(a1-3)]GlcNAc(b1-3)Gal(b1-4)[Fuc(a1-3)]GlcNAc
# Method in brief: as §1
# [12] = molecular target: Fuc(a1-2)Gal(b1-4)[Fuc(a1-3)]GlcNAc(b1-3)GalNAc
# Method in brief: as §1
# [13] = molecular target: Fuc(a1-2)Gal(b1-4)[Fuc(a1-3)]GlcNAc(b1-3)[Neu5Ac(a2-6)Gal(b1-4)GlcNAc(b1-6)]Gal(b1-4)Glc
# Method in brief: as §1
# [14] = molecular target: Fuc(a1-2)Gal6S(b1-3)GlcNAc
# Method in brief: as §1
# [15] = molecular target: Fuc(a1-2)Gal6S(b1-3)GlcNAc6S
# Method in brief: as §1
# Fuc(a1-2)Gal6S(b1-4)Glc = molecular target: Fuc(a1-2)Gal6S(b1-4)Glc
# Method in brief: as §1
# [16] = molecular target: Fuc(a1-2)Gal6S(b1-4)Glc6S
# Method in brief: as §1
# [17] = molecular target: Fuc(a1-2)Gal6S(b1-4)GlcNAc
# Method in brief: as §1
# Fuc(a1-2)[Gal(a1-3)]Gal = molecular target: Fuc(a1-2)[Gal(a1-3)]Gal
# Method in brief: as §1
# [18] = molecular target: Fuc(a1-2)[Gal(a1-3)]Gal(b1-3)GalNAc
# Method in brief: as §1
# [19] = molecular target: Fuc(a1-2)[Gal(a1-3)]Gal(b1-3)GlcNAc
# Method in brief: as §1
# [20] = molecular target: Fuc(a1-2)[Gal(a1-3)]Gal(b1-3)GlcNAc(b1-2)Man(a1-3)[Fuc(a1-2)[Gal(a1-3)]Gal(b1-3)GlcNAc(b1-2)Man(a1-6)]Man(b1-4)GlcNAc(b1-4)GlcNAc
# Method in brief: as §1
# [21] = molecular target: Fuc(a1-2)[Gal(a1-3)]Gal(b1-3)GlcNAc(b1-2)Man(a1-3)[Fuc(a1-2)[Gal(a1-3)]Gal(b1-3)GlcNAc(b1-2)Man(a1-6)]Man(b1-4)GlcNAc(b1-4)[Fuc(a1-6)]GlcNAc
# Method in brief: as §1
# [22] = molecular target: Fuc(a1-2)[Gal(a1-3)]Gal(b1-3)GlcNAc(b1-3)GalNAc
# Method in brief: as §1
# [23] = molecular target: Fuc(a1-2)[Gal(a1-3)]Gal(b1-4)Glc
# Method in brief: as §1
# [24] = molecular target: Fuc(a1-2)[Gal(a1-3)]Gal(b1-4)GlcNAc
# Method in brief: as §1
# [25] = molecular target: Fuc(a1-2)[Gal(a1-3)]Gal(b1-4)GlcNAc(b1-2)Man(a1-3)[Fuc(a1-2)[Gal(a1-3)]Gal(b1-4)GlcNAc(b1-2)Man(a1-6)]Man(b1-4)GlcNAc(b1-4)GlcNAc
# Method in brief: as §1
# [26] = molecular target: Fuc(a1-2)[Gal(a1-3)]Gal(b1-4)GlcNAc(b1-2)Man(a1-3)[Fuc(a1-2)[Gal(a1-3)]Gal(b1-4)GlcNAc(b1-2)Man(a1-6)]Man(b1-4)GlcNAc(b1-4)[Fuc(a1-6)]GlcNAc
# Method in brief: as §1
# [27] = molecular target: Fuc(a1-2)[Gal(a1-3)]Gal(b1-4)GlcNAc(b1-3)GalNAc
# Method in brief: as §1
# [28] = molecular target: Fuc(a1-2)[Gal(a1-3)]Gal(b1-4)GlcNAc(b1-6)GalNAc
# Method in brief: as §1
binder,measurement,setting,value
B1,glycan array binding signal (z-score),[1],0.644
same,glycan array binding signal (z-score),[2],-0.216
same,glycan array binding signal (z-score),[3],-0.182
same,glycan array binding signal (z-score),[4],-0.18
same,glycan array binding signal (z-score),[5],-0.183
same,glycan array binding signal (z-score),[6],-0.196
same,glycan array binding signal (z-score),[7],-0.08
same,glycan array binding signal (z-score),[8],-0.187
same,glycan array binding signal (z-score),[9],-0.069
same,glycan array binding signal (z-score),[10],-0.208
same,glycan array binding signal (z-score),[11],-0.194
same,glycan array binding signal (z-score),[12],0.081
same,glycan array binding signal (z-score),[13],-0.193
same,glycan array binding signal (z-score),[14],-0.249
same,glycan array binding signal (z-score),[15],-0.125
same,glycan array binding signal (z-score),Fuc(a1-2)Gal6S(b1-4)Glc,-0.194
same,glycan array binding signal (z-score),[16],-0.241
same,glycan array binding signal (z-score),[17],-0.203
same,glycan array binding signal (z-score),Fuc(a1-2)[Gal(a1-3)]Gal,-0.239
same,glycan array binding signal (z-score),[18],0.362
same,glycan array binding signal (z-score),[19],1.58
same,glycan array binding signal (z-score),[20],0.625
same,glycan array binding signal (z-score),[21],0.888
same,glycan array binding signal (z-score),[22],0.542
same,glycan array binding signal (z-score),[23],3.1
same,glycan array binding signal (z-score),[24],1.45
same,glycan array binding signal (z-score),[25],2.33
same,glycan array binding signal (z-score),[26],1.7
same,glycan array binding signal (z-score),[27],1.34
same,glycan array binding signal (z-score),[28],-0.215

# From the supplement of paper PMC8728848
